SMILES strings stand for the structures. Whole data set: some 5,400 compounds, median “IFI” near 2, cut for the highest 2% near 22. The list shows a part of the results.

This assay in a line: NOVARTIS: Inhibition Frequency Index (IFI) - the number of HTS assays where a compound showed > 50% inhibition/induction, expressed as a percentage of the number of assays in which the compound was tested. It counts as functional.
As for `Cc1cnc(C)c(-c2ccc(O)c(CNCC3(N4CCCCC4)CCCCC3)c2)n1`, the IFI came to 0.971%.

In the case of `COc1cc(N)c(Cl)cc1C(=O)NCC1CCN(c2nc(C)cc(C)n2)CC1`, the IFI was 0%.

Compound `C[N+]1(CC(=O)NNc2c3ccccc3nc3ccccc23)CCOCC1` came in with an IFI of 7.14%.

In turn, `Cc1cc([N+](=O)[O-])ccc1-c1ccc(C(=O)Nc2ccc(-c3nc4ccccc4[nH]3)cc2)o1` returned an IFI of 0%.

Regarding `CN(CCCNc1ccnc2cc(Cl)ccc12)C(=O)c1cccc(Br)c1`, the IFI came to 1.87%.

In turn, `CCSC1=CC(=O)c2ccccc2C1=O` registered an IFI of 24.3%.

For the compound `Cc1cccc(NC(=O)c2ccc3ccccc3n2)n1`, the IFI is 3.23%.

`CC(C)CC(N)C(=O)N1CCn2c(nc(-c3ccccc3)c2Nc2ccc3c(c2)OCO3)C1` (stereo unspecified) showed an IFI of 4.11%.

Compound `C=C(C)CSc1nc(N)c2c3c(sc2n1)CN(CCC)CC3` yielded an IFI of 14%.

Consider `C[N+](C)(C)c1ccc2cc(Br)c3ccccc3c2c1`, for which the IFI turned out to be 0%.

Turning to `O=C(Nc1cccc(-c2nc3ccccc3[nH]2)c1)c1ccccc1[N+](=O)[O-]`, the IFI was found to be 4.88%.

The compound `O=C1CSC(=S)N1c1cccc(Cl)c1` showed an IFI of 3.08%.

`COc1ccc(NC(=O)CCCCCn2c(SCC(=O)NCCc3ccc(OC)c(OC)c3)nc3ccsc3c2=O)cc1` showed an IFI of 0%.

As to `O=C1C(NC2CCCC2)=C(N2CCCCC2)C(=O)c2ccccc21`, the IFI turned out to be 15.4%.

In turn, `CC(C)N(CC(=O)Nc1cc(C(C)(C)C)nn1-c1ccc(Cl)c(Cl)c1)C(=O)c1ccc2ccccc2c1` yielded an IFI of 2.86%.

Turning to `CCOC(=O)c1c(-c2ccc3c(c2)OCO3)[nH]c2cc(OC)ccc2c1=O`, the IFI is 0%.

For the compound `CC(=O)N(C1=C(N(C)C)C(=O)c2ccccc2C1=O)c1cc(C)cc(C)c1`, the IFI stood at 15.4%.

The compound `COc1ccc(Br)cc1S(=O)(=O)N1CCCc2ccccc21` came in with an IFI of 1.54%.

As to `O=C(Nc1ccc(Cl)c(Cl)c1)Nc1cc(C(=O)NCCCN2CCCCCC2)ccc1Cl`, the IFI is 5.71%.

On to `O=S(=O)(NCCCCNc1ccnc2cc(Cl)ccc12)c1ccc(F)cc1`, for which the IFI was 1.85%.

As to `COc1ccc(OC)c(-c2ccc(C(=O)N3CCN(C/C=C/c4ccccc4)CC3)c(N(C)C)n2)c1`, the IFI is 2.54%.

`COC(=O)c1c(N)n(-c2ccccc2OC)c2nc3ccccc3nc12` yielded an IFI of 0%.

As to `Cc1cc(Nc2cccc(Cl)c2)nc(NCc2ccccc2)n1`, the IFI came to 4.54%.

Turning to `CC(=NNC(=O)c1ccc([N+](=O)[O-])cc1)c1cccc([N+](=O)[O-])c1`, the IFI is 0%.

Take `Cc1ccc(CN2CCc3nc(N4CCCCC4)sc3C2)s1`: the IFI is 6.94%.

In turn, `COCCN1C(=O)C(O)=C(C(=O)c2ccccc2)C1c1ccccc1[N+](=O)[O-]` (stereo unspecified) gave an IFI of 0%.

`CN(CCCNc1ccnc2cc(Cl)ccc12)C(=O)C(C)(C)CCl` came in with an IFI of 4.63%.

As to `CN1CCc2c(sc3nc(SCc4ccc(Cl)cc4)n(-c4cccc(Cl)c4)c(=O)c23)C1`, the IFI was 11.5%.

With `Cc1ccc(NC(=O)C2C3C=CC4(O3)C2C(=O)N(CCCN2CCOCC2)C4C(=O)NC2CCCC(C)C2C)cc1Cl` (stereo unspecified), the IFI worked out at 0%.

For `Cc1ccc(S(=O)(=O)N=C2C=C(Sc3nc4ccccc4[nH]3)C(=O)c3ccccc32)cc1`, the IFI was found to be 12.7%.

For the compound `COc1ccc(C(=O)N2C(C(=O)Nc3ccccc3F)CSC2c2ccc(C(C)(C)C)cc2)cc1` (stereo unspecified), the IFI amounted to 2.15%.

In the case of `CCOC(=O)C1=C(C)N=c2sc(=Cc3cc(Br)ccc3O)c(=O)n2C1c1ccc(OC)c(OC)c1` (stereo unspecified), the IFI stood at 2.47%.

In turn, `COc1cc(-c2nc(-c3cccc(Cl)c3)c(-c3ccccc3)[nH]2)cc(OC)c1O` returned an IFI of 3.37%.

Compound `COc1cccc(NC(=O)C2C3C=CC4(O3)C2C(=O)N(CC2COc3ccccc3O2)C4C(=O)NC2CCCCC2)c1` (stereo unspecified) registered an IFI of 0%.

As to `CCCCCCc1ccc(C(=O)NCCCCNc2ccnc3cc(Cl)ccc23)cc1`, the IFI came out at 2.13%.

On to `O=C(ON=C(c1ccncc1)c1ccc(Cl)cc1)c1ccccc1`, for which the IFI amounted to 2.54%.

For `CC1(C)Oc2ccc3ccc(=O)oc3c2CC1=NNC(N)=S`, the IFI was 3.85%.

As for `O=c1c2c3c(sc2ncn1CCCc1ccccc1)CC(N1CCC(N2CCCCC2)CC1)CC3` (stereo unspecified), the IFI was 2.24%.

In the case of `CC(=O)N1c2ccccc2CC1C(=O)NCc1cccc(Cl)c1` (stereo unspecified), the IFI was 0%.

As for `Cc1cc(NCCc2ccccc2)nc2cc(O)ccc12`, the IFI was determined as 2.27%.

Turning to `O=C(c1ccc([N+](=O)[O-])cc1)c1ccc(Cl)c(Cl)c1`, the IFI was determined as 0%.

Consider `CCCCc1ccc(Nc2ncnc3sc4c(c23)CCCC4)cc1`, for which the IFI is 0%.

Regarding `CC(=O)Nc1ccc(Oc2ccc(C(c3ccccc3)(c3ccccc3)c3ccc(Oc4ccc(NC(C)=O)cc4)cc3)cc2)cc1`, the IFI was 1.56%.

Compound `COc1ccc(C(=O)C[n+]2cc(-c3ccc(OC)cc3)n3c2CCC3)cc1` showed an IFI of 4.88%.

On to `Cc1nnc(SCC(=O)NCc2ccco2)n1-c1ccc(F)cc1`, for which the IFI is 0%.

`O=C(Nc1ccc(C2=NCCN2)c(Cl)c1)c1ccc(C(=O)Nc2ccc(C3=NCCN3)c(Cl)c2)cc1` displayed an IFI of 0%.

The compound `CCCCCCCn1c2c(c(=N)c3ccccc31)CCC2` had an IFI of 13.6%.

In the case of `O=c1cc(NC2CCN(CCCc3ccccc3)CC2)c2cc(Cl)ccc2o1`, the IFI came to 0%.

Consider `CC(C)CNC(=O)c1cnc(NCCCn2ccnc2)nc1NCC1CCCCC1`, for which the IFI is 0.962%.

The compound `CSc1ccc(Cl)c(Cl)c1` registered an IFI of 6.17%.

For `CCCCSCC(O)CN1CCCCC1` (stereo unspecified), the IFI amounted to 0%.

Consider `Cc1cc(NC(=O)C2c3ccccc3C(=O)N(CC(C)C)C2c2cccs2)no1` (stereo unspecified), for which the IFI was determined as 0%.

In turn, `CCN(CC)C(=O)CSc1nnc(-c2ccccn2)n1-c1ccc(OC)cc1` displayed an IFI of 3.64%.

`c1ccc(-c2ccc(-c3ccccn3)nc2)nc1` showed an IFI of 15.9%.

Consider `Cc1ccccc1/C=C1/SC(=Nc2ccccc2)NC1=O`, for which the IFI came to 3.45%.

As to `O=C(Nc1cccc(Cl)c1)Nc1cc(C(F)(F)F)cc(C(F)(F)F)c1`, the IFI turned out to be 12.5%.

`Cc1nc2ccc(NC(=O)C3CC3)cc2c(=O)n1Cc1ccc(Cl)cc1` returned an IFI of 3.39%.

Compound `Cc1cc(C(=O)N2CCOc3c(cc(-c4csc5ccccc45)cc3OCCc3ccccn3)C2)n(C)n1` yielded an IFI of 1.92%.

`CCN1/C(=C/c2cccc[n+]2C)Sc2cc(NC(C)=O)ccc21` yielded an IFI of 0%.

The compound `CCN(CC)Cc1cc2ccc(C)cc2n(CC(=O)OC)c1=O` returned an IFI of 1%.

`Cc1c(Cl)cccc1N1C(=O)C2C3c4ccccc4C(c4ccccc43)C2C1=O` (stereo unspecified) had an IFI of 0%.

For `CC(CCCO)Nc1ccnc2cc(Cl)ccc12` (stereo unspecified), the IFI was 4.88%.

`Oc1ccc(-c2ccccc2)cc1CN1CCCCC1` showed an IFI of 0%.

`CCOC(=O)c1c(CNC)n(C)c2cc(Br)c(O)cc12` came in with an IFI of 0%.

In turn, `CCOC(=O)c1c(NC(=O)CCC(=O)OC)sc2c1CC(C)(C)SC2` came in with an IFI of 1.22%.

`CCOc1ccc(NC(=O)c2ccc(F)c(S(=O)(=O)NC3CCCC(C)C3C)c2)cc1` (stereo unspecified) returned an IFI of 0%.

Values taken from ChEMBL document CHEMBL1156829.
